# Measured values as given in the RNAGym collection of RNA variant scans (doi:10.7554/elife.90254).
# Read counts are not given, so values of variants with three or more changes are uncertain.
# B1: LINE1-mini (parent)
# chain: GGCAGAGCUCAACACAGCGUGGCAAAGUGGCUGUGGCUAGACUGCC
# Variants of: B1
# Assay: self-cleavage, relative activity (ratio to wild type); higher = more cleavage; in vitro, sequencing; the parent is a self-cleaving ribozyme
row,Variant,self-cleavage
1,A4U A11C A16G U28G C45U,0.01
2,A4U A11C A25U,0.01
3,A4U A11C C13G U32G,0
4,A4U A11C G17U G21A C23U G44U,0.03
5,A4U A11C G44C,0.02
6,A4U A11C U34G G36A U38G,0.02
7,A4U A11G C18G,0.01
8,A4U A11G G19A G21U U28A,0.01
9,A4U A11G U20A G21A,0.02
10,A4U A11G U20C G29C,0.02
11,A4U A11U A14C,0.02
12,A4U A11U A24C A26G G33A,0.01
13,A4U A11U C18A,0.02
14,A4U A11U U20C G21C G29A G44C C46A,0.01
15,A4U A12C A14G U34A,0.05
16,A4U A12C A16U G22C G27A,0.06
17,A4U A12C G19C G29C,0.01
18,A4U A12C G19U C31G C42U,0.02
19,A4U A12C G21A,0.03
20,A4U A12C G21C U34A A39C C46A,0.02
21,A4U A12C G44C,0.04
22,A4U A12G A14C G19U A25U G27A C42A,0
23,A4U A12G A25C U28C G40U,0.02
24,A4U A12G A26U U32G U43A G44U,0.01

row,Variant,self-cleavage
1,A4U A12G G19A G27C,0.03
2,A4U A12G G19A G35U C42A,0.02
3,A4U A12U C13U U32G,0.12
4,A4U A12U G21U G30A C42G,0.01
5,A4U A14C A25C C31U C45A,0.01
6,A4U A14C G21U U28A G33A,0.03
7,A4U A14G A24G G44A,0
8,A4U A14G G27U G33U,0.05
9,A4U A14U A41U,0.13
10,A4U A14U C37A G44U,0.03
11,A4U A14U C37U,0.05
12,A4U A14U G35C,0.11
13,A4U A16C A41U,0.07
14,A4U A16C G17A C46U,0.02
15,A4U A16C G21A A26C U28C,0.04
16,A4U A16C G30C,0.05
17,A4U A16C G35U A39C C42U,0.07
18,A4U A16G C23U G27A U38C C42G,0.06
19,A4U A16G G19C A24G C37A,0.01
20,A4U A16G G29C,0.05
21,A4U A16G G29U,0.21
22,A4U A16U A24C C45G,0.01
23,A4U A16U A25G,0.07
24,A4U A16U A41G,0.03

row,Variant,self-cleavage
1,A4U A16U C45A,0
2,A4U A16U G19U A41U G44C,0.01
3,A4U A16U G27U,0.27
4,A4U A16U G33U,0.05
5,A4U A16U G40A,0.28
6,A4U A16U U20G,0.08
7,A4U A24G A41U,0.13
8,A4U A24G C31U,0.27
9,A4U A24G G30A G44C,0.09
10,A4U A24G G33C,0.04
11,A4U A24G U43A,0.06
12,A4U A24U G27A C31U C37G U38G,0.02
13,A4U A24U G27A G30U,0.18
14,A4U A24U G35U,0.07
15,A4U A25C A39G C46A,0.02
16,A4U A25C G29A G40U,0.11
17,A4U A25G C37A,2.43
18,A4U A25G G29C U34G,0.08
19,A4U A25G U43C,0.05
20,A4U A25U G27U U32G,0.08
21,A4U A25U G29U,2.92
22,A4U A25U U32G U34C,0.04
23,A4U A26C G33C,0.07
24,A4U A26C G36C,1.11

row,Variant,self-cleavage
1,A4U A26G G35A,0.01
2,A4U A39U C46G,0.02
3,A4U A41C C42G,0
4,A4U C8A A11C,0.09
5,A4U C8A A12U G17U,0.28
6,A4U C8A A39G G40A,0.09
7,A4U C8A C10U C42A,0.1
8,A4U C8A C18A,0.4
9,A4U C8A G21U G40U,1.16
10,A4U C8A G29U,0.08
11,A4U C8A G44U,0.13
12,A4U C8A U9A,0.12
13,A4U C8A U9G C18U A25G U28G,0.23
14,A4U C8A U28A U43C,0.83
15,A4U C8A U28C U34C,0.06
16,A4U C8G A11U G19U C23U A41C,0
17,A4U C8G A11U G33C,0.04
18,A4U C8G A16C,0.03
19,A4U C8G A25C,0.04
20,A4U C8G C10U G40U,0.08
21,A4U C8G C13A G21A U28G G40C,0.01
22,A4U C8G G22C G44U,0.01
23,A4U C8G G36A C42A,0.01
24,A4U C8G U9C G27A C37G A41C,0

row,Variant,self-cleavage
1,A4U C8U A12G,0.19
2,A4U C8U A26G,0.11
3,A4U C8U C10A A26C,0.02
4,A4U C8U C10G U38G A41G,0.03
5,A4U C8U C13G,0.05
6,A4U C8U C18A U20A G27C C42A,0.03
7,A4U C8U C31G A39G,0.2
8,A4U C8U C42G,0.14
9,A4U C8U G19C G22A G30U A39C,0.01
10,A4U C8U G22C G27C G33A G40U,0.06
11,A4U C8U G27A U28C,0.05
12,A4U C8U G33A,0.05
13,A4U C8U G33C,0.16
14,A4U C10A A14G,0.4
15,A4U C10A A16C G19U U20A C37G,0.01
16,A4U C10A A16C U20C G33C C42A,0.01
17,A4U C10A A25U U32G,0.06
18,A4U C10A A26U A39C,0.01
19,A4U C10A C23A G40U,0
20,A4U C10A C23G,0.02
21,A4U C10A C31A,0.03
22,A4U C10A C31G G35A,0.04
23,A4U C10A C37A C46A,0.05
24,A4U C10A C46U,0

row,Variant,self-cleavage
1,A4U C10A G17A A39C,0.01
2,A4U C10A G17A G29U G33U C37A,0.02
3,A4U C10A G19A C42G,0.01
4,A4U C10A G19U A39U,0.02
5,A4U C10A G27U G35U,0.04
6,A4U C10A G29C U34A A41U C42U,0.01
7,A4U C10A G29U,0.04
8,A4U C10A G36A C46U,0.02
9,A4U C10A G40U,0.03
10,A4U C10A U34A C42A,0.05
11,A4U C10G A12U A14U A24G G35A,0.03
12,A4U C10G G19A G40U,0.03
13,A4U C10G G36C,0.02
14,A4U C10G G40A C45A,0.01
15,A4U C10G U32A,0.03
16,A4U C10U A11C G40C C42A,0.01
17,A4U C10U C15A G35U,0.02
18,A4U C10U G30C,0.08
19,A4U C10U G35C C45A,0.02
20,A4U C10U U28A,0.09
21,A4U C13A A16G,0.04
22,A4U C13A A16U A41C,0.04
23,A4U C13A A24C,0.04
24,A4U C13A G17U G22C U43A,0.07

row,Variant,self-cleavage
1,A4U C13A U28A,0.38
2,A4U C13A U28A G36A C37A,0.14
3,A4U C13G C18U U28C,0.1
4,A4U C13U A24G G36C,0.12
5,A4U C13U A39C,0.07
6,A4U C13U A41G,0.09
7,A4U C13U G19U G33U,0.08
8,A4U C13U G21U,0.28
9,A4U C13U U28C G29C,0.01
10,A4U C15A A26U C37A,0.02
11,A4U C15A C18G,0.07
12,A4U C15A G19A C23A A25G A26U,0.07
13,A4U C15G G33C,0.06
14,A4U C15U A39G,0.07
15,A4U C15U C18G U20G,0.02
16,A4U C15U G17A C23U,0.03
17,A4U C18A C31G,0.03
18,A4U C18A G22U C42A,0.11
19,A4U C18A G33U C42U,0
20,A4U C18G A26G G44U,0.01
21,A4U C18G C42G,0.12
22,A4U C18G G29U,0.07
23,A4U C18U A25G G35A,0.08
